In the supplement of paper PMC4967469:
Lines with a small IC50 respond at low doses; a limit (>, <) means that the fit lies beyond the doses tested. AUC is the area under the same curve over the 256-fold range up to the top dose, as a fraction: 1 means no effect, lower means more sensitive. The top dose, if marked as inferred, comes from the curve model; the source does not state it. For some assays here: An entry number marks a drug with two screens in the source, which often give different values.

Assays:
Assay in all cases: Viability of human cancer cell lines after 72 h of drug (GDSC screen)
AZD6482 = compound: Cc1cc([C@@H](C)Nc2ccccc2C(=O)O)c2nc(N3CCOCC3)cc(=O)n2c1 [AZD6482]
Procedure: (§1)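 Human cancer cell lines in 384-well plates, medium with 10% serum, drug for 72 h over a 256-fold dose range (nine 2-fold or five 4-fold steps up to the top dose). Adherent lines were fixed and stained with the nucleic acid dye Syto60, suspension lines read with resazurin; signal relative to control wells, capped at 0 and 100%. One two-parameter sigmoid per drug and line, fitted in a mixed model over all curves with the slope shared within a line.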

BMN-673 = compound: Cn1ncnc1[C@H]1c2n[nH]c(=O)c3cc(F)cc(c23)N[C@@H]1c1ccc(F)cc1 [BMN-673]; details: top dose 10 µM; top dose inferred
Procedure: as §1

MLN4924 = compound: NS(=O)(=O)OC[C@@H]1C[C@@H](n2ccc3c(N[C@H]4CCc5ccccc54)ncnc32)C[C@@H]1O [MLN4924]; details: top dose 1 µM; top dose inferred
Procedure: as §1

[1] = top dose 5 µM, screen: GDSC drug entry 1066, top dose inferred
[2] = top dose 5.12 µM, screen: GDSC drug entry 156

Row | Cell Line | AUC (AZD6482; [1]) | IC50 (AZD6482; [1]) | AUC (AZD6482; [2]) | IC50 (AZD6482; [2]) | AUC (BMN-673) | IC50 (BMN-673) | AUC (MLN4924) | IC50 (MLN4924)
1 | KON (head and neck, adherent) | 0.973 | > 5000 nM | 0.899 | > 5120 nM | 0.573 | 988 nM | 0.516 | 69 nM
2 | SK-OV-3 (ovary, adherent) | 0.847 | > 5000 nM | 0.663 | 1020 nM | 0.799 | 6270 nM | 0.924 | > 1000 nM
3 | KOPN-8 (B-cell leukaemia, suspension) | 0.93 | > 5000 nM | 0.932 | > 5120 nM | 0.468 | 517 nM | 0.913 | > 1000 nM
4 | BCPAP (thyroid, adherent) | 0.904 | > 5000 nM | 0.927 | > 5120 nM | 0.826 | 5320 nM | 0.827 | 537 nM
5 | RERF-GC-1B (stomach, adherent) |  |  | 0.916 | > 5120 nM | 0.908 | > 10000 nM | 0.981 | > 1000 nM
6 | A431 (skin, adherent) | 0.923 | > 5000 nM | 0.817 | 2700 nM | 0.9 | > 10000 nM | 0.811 | 505 nM
7 | KARPAS-620 (haematopoietic neoplasm, suspension) | 0.942 | > 5000 nM | 0.814 | 2310 nM | 0.987 | > 10000 nM | 0.99 | > 1000 nM
8 | ARH-77 (myeloma, suspension) | 0.988 | > 5000 nM | 0.823 | 2880 nM | 0.673 | 1860 nM | 0.813 | 516 nM
9 | U-118-MG (glioma, adherent) | 0.769 | 2170 nM | 0.936 | > 5120 nM | 0.902 | > 10000 nM | 0.902 | > 1000 nM
10 | BICR22 (head and neck, adherent) | 0.926 | > 5000 nM | 0.753 | 1940 nM | 0.633 | 1540 nM | 0.694 | 240 nM
11 | KYSE-270 (oesophagus, adherent) | 0.977 | > 5000 nM | 0.89 | 4400 nM | 0.707 | 2170 nM | 0.57 | 94.1 nM
12 | NCI-H2452 (mesothelioma, adherent) | 0.755 | 2000 nM | 0.909 | > 5120 nM | 0.8 | 5930 nM | 0.907 | > 1000 nM
13 | MOLT-13 (T-cell lymphoblastic leukaemia, suspension) | 0.986 | > 5000 nM |  |  | 0.718 | 2370 nM | 0.733 | 261 nM
14 | HOP-92 (large cell lung carcinoma, adherent) | 0.809 | 3120 nM | 0.852 | 4950 nM | 0.844 | 8920 nM | 0.937 | > 1000 nM
15 | KLE (endometrium, adherent) | 0.782 | 3480 nM | 0.865 | > 5120 nM | 0.954 | > 10000 nM | 0.966 | > 1000 nM
16 | NCI-H727 (lung carcinoid, adherent) | 0.967 | > 5000 nM | 0.903 | > 5120 nM | 0.973 | > 10000 nM | 0.952 | > 1000 nM

Row | Cell Line | AUC (AZD6482; [1]) | IC50 (AZD6482; [1]) | AUC (AZD6482; [2]) | IC50 (AZD6482; [2]) | AUC (BMN-673) | IC50 (BMN-673) | AUC (MLN4924) | IC50 (MLN4924)
17 | CHL-1 (melanoma, adherent) | 0.887 | > 5000 nM | 0.838 | 3190 nM | 0.875 | 8900 nM | 0.873 | 869 nM
18 | NCI-H1666 (lung adenocarcinoma, semi-adherent) | 0.944 | > 5000 nM | 0.98 | > 5120 nM | 0.903 | > 10000 nM | 0.98 | > 1000 nM
19 | MZ7-mel (melanoma, adherent) | 0.971 | > 5000 nM | 0.942 | > 5120 nM | 0.914 | > 10000 nM | 0.951 | > 1000 nM
20 | BPH-1 (prostate, adherent) | 0.778 | 2250 nM | 0.767 | 2100 nM | 0.773 | 4300 nM | 0.821 | 660 nM
21 | HCC1143 (breast, adherent) | 0.94 | > 5000 nM | 0.915 | > 5120 nM | 0.905 | > 10000 nM | 0.9 | > 1000 nM
22 | HT-144 (melanoma, adherent) | 0.941 | > 5000 nM | 0.87 | > 5120 nM | 0.872 | > 10000 nM | 0.937 | > 1000 nM
23 | HT (B-cell lymphoma, suspension) | 0.828 | 2740 nM | 0.823 | 2700 nM | 0.989 | > 10000 nM | 0.967 | > 1000 nM
24 | NCI-H2029 (small cell lung carcinoma, adherent) | 0.986 | > 5000 nM | 0.992 | > 5120 nM | 0.992 | > 10000 nM | 0.953 | > 1000 nM
25 | ST486 (Burkitt lymphoma, suspension) | 0.98 | > 5000 nM | 0.929 | > 5120 nM | 0.989 | > 10000 nM | 0.943 | > 1000 nM
26 | RCH-ACV (B-cell leukaemia, suspension) | 0.657 | 781 nM |  |  | 0.438 | 437 nM | 0.822 | 454 nM
27 | 769-P (kidney, adherent) | 0.822 | 3270 nM | 0.908 | > 5120 nM | 0.625 | 1430 nM | 0.863 | > 1000 nM
28 | PANC-08-13 (pancreas, adherent) | 0.891 | > 5000 nM | 0.89 | > 5120 nM | 0.931 | > 10000 nM | 0.981 | > 1000 nM
29 | NCI-H520 (lung squamous cell carcinoma, adherent) | 0.836 | 3460 nM | 0.805 | 2680 nM | 0.976 | > 10000 nM | 0.972 | > 1000 nM
30 | SCC-25 (head and neck, adherent) | 0.83 | 3710 nM | 0.941 | > 5120 nM | 0.968 | > 10000 nM | 0.938 | > 1000 nM
31 | LN-405 (glioma, adherent) | 0.74 | 1860 nM | 0.76 | 2250 nM | 0.971 | > 10000 nM | 0.971 | > 1000 nM
